Target: MtOASS (O-acetylserine sulfhydrylase) (Mycobacterium tuberculosis, UniProt P9WP55)

Compound	enthalpic contribution to binding free energy	contribution of enthalpy to total binding free energy (25°C)	enthalpy value (25°C)
CSCC[C@H](N)C(=O)O [Methionine, L-methionine]	5%	–	–
CC(=O)OC[C@H](N)C(=O)O [OAS, O-acetylserine]	–	less than 3%	0.53 ± 0.3 kJ/M
